# Data from a collection of fitness landscapes (doi:10.1126/science.1257360).
# This is one part of the list.
# B1: PhoQ; a variant is named by its letters at X, in order, P23837 (parent)
# chain: MKKLLRLFFPLSLRVRFLLATAAVVLVLSLAYGMVALIGYSVSFDKTTFRLLRGESNLFYTLAKWENNKLHVELPENIDKQSPTMTLIYDENGQLLWAQRDVPWLMKMIQPDWLKSNGFHEIEADVNDTSLLLSGDHSIQQQLQEVREDDDDAEMTHSVAVNVYPATSRMPKLTIVVVDTIPVELKSSYMVWSWFIYVLSANLLLVIPLLWVAAWWSLRPIEALAKEVRELEEHNRELLNPATTRELTSLVRNLNRLLKSERERYDKYRTTLTDLTHSLKTPLXXLQXXLRSLRSEKMSVSDAEPVMLEQISRISQQIGYYLHRASMRGGTLLSRELHPVAPLLDNLTSALNKVYQRKGVNISLDISPEISFVGEQNDFVEVMGNVLDNACKYCLEFVEISARQTDEHLYIVVEDDGPGIPLSKREVIFDRGQRVDTLRPGQGVGLAVAREITEQYEGKIVAGESMLGGARMEVIFGRQHSAPKDE
# Variants of: B1
# Experiment: enrichment ratio after two sorts for PhoP signalling (ratio (wild type AVST 3.29)); higher = more functional
# Conditions: with PhoP (E. coli)
row,Variant,enrichment ratio
1,HFLQ,≤ 0.25
2,PHFY,≤ 0.25
3,FALF,8.88
4,NYKH,≤ 0.25
5,ADVY,≤ 0.25
6,VWYC,≤ 0.25
7,TIMQ,5.14
8,LHHK,≤ 0.25
9,TQTM,22.5
10,PHPD,≤ 0.25
11,SSYH,≤ 0.25
12,MHHE,≤ 0.25
13,RSVY,≤ 0.25
14,GPWR,≤ 0.25
15,VIPD,≤ 0.25
16,FAMS,≤ 0.25
17,WRRY,≤ 0.25
18,QDWN,≤ 0.25
19,YRYM,≤ 0.25
20,TYKP,≤ 0.25
21,WEYH,≤ 0.25
22,NFAE,≤ 0.25
23,KATD,≤ 0.25
24,TTTP,≤ 0.25

row,Variant,enrichment ratio
1,FVYN,≤ 0.25
2,DNMM,≤ 0.25
3,AFYE,≤ 0.25
4,MGSN,1.03
5,WKYK,≤ 0.25
6,NRFT,≤ 0.25
7,ISCM,2.52
8,DEHM,≤ 0.25
9,CLYS,≤ 0.25
10,SGSL,11.8
11,MCPQ,≤ 0.25
12,PWCV,≤ 0.25
13,WVCK,≤ 0.25
14,SDCM,17.2
15,PDFG,≤ 0.25
16,EYVR,≤ 0.25
17,LPQK,≤ 0.25
18,HTHA,≤ 0.25
19,GPIW,≤ 0.25
20,TIAA,12
21,CFRL,≤ 0.25
22,SFKY,≤ 0.25
23,WMVG,≤ 0.25
24,VNDI,≤ 0.25

row,Variant,enrichment ratio
1,RGWV,≤ 0.25
2,GIQP,≤ 0.25
3,DMTT,≤ 0.25
4,DSMN,≤ 0.25
5,GRAV,≤ 0.25
6,PVMI,≤ 0.25
7,KESE,≤ 0.25
8,FVAN,≤ 0.25
9,LQRA,≤ 0.25
10,LTIT,≤ 0.25
11,PDYN,≤ 0.25
12,VKFF,≤ 0.25
13,NSPN,≤ 0.25
14,IEMN,≤ 0.25
15,VSAL,3.53
16,GKIH,≤ 0.25
17,FWGQ,1.28
18,QIWG,≤ 0.25
19,WISL,≤ 0.25
20,DQDS,≤ 0.25
21,DPKN,≤ 0.25
22,GSDC,≤ 0.25
23,WPCL,≤ 0.25
24,IEPN,≤ 0.25

row,Variant,enrichment ratio
1,FHGP,≤ 0.25
2,LVIQ,≤ 0.25
3,WEQI,≤ 0.25
4,QYAW,≤ 0.25
5,SQPP,≤ 0.25
6,HDLF,≤ 0.25
7,HFQR,≤ 0.25
8,FRQV,≤ 0.25
9,TPYS,≤ 0.25
10,KHSA,≤ 0.25
11,IYSK,≤ 0.25
12,GLFM,≤ 0.25
13,FQKA,≤ 0.25
14,RWCS,≤ 0.25
15,MSRV,≤ 0.25
16,MTSG,1.93
17,LRQT,≤ 0.25
18,NEMG,≤ 0.25
19,RFIM,≤ 0.25
20,WIPM,≤ 0.25
21,EMVK,≤ 0.25
22,IEAT,≤ 0.25
23,GTIP,≤ 0.25
24,VKPF,≤ 0.25

row,Variant,enrichment ratio
1,AHRL,≤ 0.25
2,HLPC,≤ 0.25
3,KMEW,≤ 0.25
4,QLPQ,≤ 0.25
5,EKKC,≤ 0.25
6,IWAF,≤ 0.25
7,VENF,≤ 0.25
8,VHMH,≤ 0.25
9,GHPF,≤ 0.25
10,QRPW,≤ 0.25
11,QIVF,≤ 0.25
12,SHYV,≤ 0.25
13,DADI,≤ 0.25
14,QVPK,≤ 0.25
15,TCYT,1.52
16,YQMH,≤ 0.25
17,HRNN,≤ 0.25
18,KISR,≤ 0.25
19,SNQG,6.93
20,YEDW,≤ 0.25
21,YCLR,≤ 0.25
22,SFII,≤ 0.25
23,MLTQ,≤ 0.25
24,MRRW,≤ 0.25

row,Variant,enrichment ratio
1,GPMF,≤ 0.25
2,TQVA,3.07
3,FADS,≤ 0.25
4,MKQE,≤ 0.25
5,PQQI,≤ 0.25
6,IFSV,≤ 0.25
7,GDIP,≤ 0.25
8,RYQF,≤ 0.25
9,HISR,≤ 0.25
10,DAVR,≤ 0.25
11,DFTP,≤ 0.25
12,PGER,≤ 0.25
13,FITN,≤ 0.25
14,TRAN,≤ 0.25
15,MDWY,≤ 0.25
16,MLTG,≤ 0.25
17,NRYD,≤ 0.25
18,ASIA,13.9
19,WHLG,≤ 0.25
20,VVHK,≤ 0.25
21,ECAL,≤ 0.25
22,VLWL,≤ 0.25
23,RTKF,≤ 0.25
24,DRIT,≤ 0.25

row,Variant,enrichment ratio
1,VDTP,≤ 0.25
2,YNDY,≤ 0.25
3,MYPS,≤ 0.25
4,IGYL,≤ 0.25
5,VYYS,≤ 0.25
6,CFHS,≤ 0.25
7,HQNC,≤ 0.25
8,EQNW,≤ 0.25
9,IEAH,≤ 0.25
10,PSTE,≤ 0.25
11,GTAC,≤ 0.25
12,GNKR,≤ 0.25
13,FHEW,≤ 0.25
14,GNSG,13.2
15,HAGF,≤ 0.25
16,GQFS,≤ 0.25
17,WLYD,≤ 0.25
18,ELSR,≤ 0.25
19,RGRE,≤ 0.25
20,IILI,≤ 0.25
21,RSAT,≤ 0.25
22,GDSP,≤ 0.25
23,LITF,≤ 0.25
24,QCKV,≤ 0.25

row,Variant,enrichment ratio
1,LGWP,≤ 0.25
2,HWQM,≤ 0.25
3,LHVY,≤ 0.25
4,WWCF,≤ 0.25
5,DRVQ,≤ 0.25
6,MKTQ,≤ 0.25
7,PWDD,≤ 0.25
8,IFIM,≤ 0.25
9,LVNR,≤ 0.25
10,HRIS,≤ 0.25
11,GNFK,≤ 0.25
12,LFYK,≤ 0.25
13,WVKT,≤ 0.25
14,YWEL,≤ 0.25
15,WRQS,≤ 0.25
16,FGAY,≤ 0.25
17,TCDE,≤ 0.25
18,NVNW,≤ 0.25
19,FWKD,≤ 0.25
20,YPSG,≤ 0.25
21,MQAV,18.4
22,GEYP,≤ 0.25
23,NNFY,≤ 0.25
24,HTFG,≤ 0.25

row,Variant,enrichment ratio
1,RNKK,≤ 0.25
2,PINV,≤ 0.25
3,AGTA,0.557
4,SFLP,≤ 0.25
5,LETQ,≤ 0.25
6,RWRL,≤ 0.25
7,VIII,≤ 0.25
8,PAYV,≤ 0.25
9,MRDA,≤ 0.25
10,LHLN,≤ 0.25
11,GDPM,≤ 0.25
12,IVQP,≤ 0.25
13,SRNG,≤ 0.25
14,YWLT,≤ 0.25
15,IKVM,≤ 0.25
16,NARH,≤ 0.25
17,TRTM,1.9
18,DMCD,≤ 0.25
19,VLPV,≤ 0.25
20,FWTH,≤ 0.25
21,DFVC,≤ 0.25
22,SRSQ,≤ 0.25
23,LMVR,≤ 0.25
24,EQSI,≤ 0.25

row,Variant,enrichment ratio
1,TDRI,≤ 0.25
2,LWWI,≤ 0.25
3,RIFV,≤ 0.25
4,TIHS,2.26
5,WWRS,≤ 0.25
6,WNAW,≤ 0.25
7,YDSW,≤ 0.25
8,WLYP,≤ 0.25
9,TWQS,≤ 0.25
10,YSFF,≤ 0.25
11,VCPP,0.292
12,PKVH,≤ 0.25
13,VEIQ,≤ 0.25
14,WFRH,≤ 0.25
15,QGAE,≤ 0.25
16,EAIK,≤ 0.25
17,AQVH,7.73
18,MIIW,≤ 0.25
19,GQIH,≤ 0.25
20,MFEA,≤ 0.25
21,HQQN,≤ 0.25
22,GFWI,≤ 0.25
23,ASMH,16.5
24,EYAQ,≤ 0.25

row,Variant,enrichment ratio
1,MIIG,≤ 0.25
2,QSMY,≤ 0.25
3,QTLG,≤ 0.25
4,RCSM,≤ 0.25
5,YSSP,≤ 0.25
6,TQGD,2.92
7,MIPK,≤ 0.25
8,IELC,≤ 0.25
9,HKKM,≤ 0.25
10,PNEV,≤ 0.25
11,WGLV,5.51
12,ECTK,≤ 0.25
13,ELWS,≤ 0.25
14,TLLS,0.896
15,GHLI,≤ 0.25
16,VLHK,≤ 0.25
17,IRRL,0.349
18,FNRM,≤ 0.25
19,VINF,≤ 0.25
20,LKCE,≤ 0.25
21,DILF,≤ 0.25
22,SGHC,≤ 0.25
23,AQTQ,≤ 0.25
24,KHCT,≤ 0.25

row,Variant,enrichment ratio
1,FCHV,≤ 0.25
2,MQGG,2.73
3,CRVY,≤ 0.25
4,MFCT,≤ 0.25
5,GRCQ,≤ 0.25
6,WIWT,≤ 0.25
7,METT,13
8,MVWL,≤ 0.25
9,WRRN,≤ 0.25
10,RMLG,≤ 0.25
11,EGSN,≤ 0.25
12,RGQI,≤ 0.25
13,QLKP,≤ 0.25
14,PAVS,≤ 0.25
15,VMCA,≤ 0.25
16,TDAI,13.6
17,QLQF,≤ 0.25
18,YVTL,0.327
19,HTGH,≤ 0.25
20,MDCP,≤ 0.25
21,HPEC,≤ 0.25
22,QEYH,3.82
23,ESNI,≤ 0.25
24,LTAI,≤ 0.25

row,Variant,enrichment ratio
1,IPHG,≤ 0.25
2,LMIW,≤ 0.25
3,VIKS,≤ 0.25
4,PFVI,≤ 0.25
5,ELWH,≤ 0.25
6,YDSE,≤ 0.25
7,VTNF,≤ 0.25
8,PLGI,≤ 0.25
9,WQLC,≤ 0.25
10,NLKR,≤ 0.25
11,PRIE,≤ 0.25
12,VYAG,≤ 0.25
13,DLWR,≤ 0.25
14,IAAF,≤ 0.25
15,TNYW,≤ 0.25
16,GMSE,2.63
17,WIKM,≤ 0.25
18,FSGP,≤ 0.25
